This is one part of the list.

The test deals with T1, OsWOX13 (Oryza sativa, UniProt Q5QMM3 1-267).
T1 sequence: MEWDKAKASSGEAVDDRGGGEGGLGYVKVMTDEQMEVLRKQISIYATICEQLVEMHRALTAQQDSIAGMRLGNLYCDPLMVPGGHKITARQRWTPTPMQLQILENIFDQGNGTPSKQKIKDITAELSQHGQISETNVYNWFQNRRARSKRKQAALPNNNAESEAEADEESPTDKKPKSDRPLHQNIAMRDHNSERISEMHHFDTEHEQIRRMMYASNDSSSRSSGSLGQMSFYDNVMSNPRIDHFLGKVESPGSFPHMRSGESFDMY
The experiment in a line: protein-binding microarray (RPBM); PBS, 2% BSA, 51.3 ng/ul salmon testes DNA, 50 uM zinc acetate, 200 nM TF, 25 C, 1 h; high values mean tight binding. As to conditions: protein: recombinant; tags: N-terminal polyhistidine and DsRed monomer fusion (pET32a); label: CyDye5-dUTP incorporated in the synthesized complementary strand; 3' TTTTT single-stranded linker to array surface; dsDNA, one strand shown. Put shortly:
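A custom Agilent array was converted to double-stranded form by primer extension with Cy5-dUTP and blocked with 2% BSA. Protein at 200 nM in PBS with 2% BSA, salmon testes DNA and 50 µM zinc acetate was applied for 1 h at 25 °C, followed by washing. The proteins were polyhistidine–DsRed N-terminal fusions of transcription factors, expressed in E. coli BL21-CodonPlus and Ni–NTA-purified. The binding signal is per-feature fluorescence intensity (arbitrary units) from an Axon 4000B scanner.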
Turning to “CTTAATATGTGTTAAACTTTTCAATGTGTTTCCTATTGAACGGAGTCACCTAGTGCAG”, the binding signal was 7340 fluorescence intensity (a.u.).

As to “TCTAACGTAAAATTTATTATAATAAATATGTGGTTCAAAGCGGAGTCACCTAGTGCAG”, the binding signal is 5580 fluorescence intensity (a.u.).

Turning to “GACTGTGATCAAGCTAATTTTATGTCGCCATAAATATAGCCGGAGTCACCTAGTGCAG”, the binding signal was 4000 fluorescence intensity (a.u.).

Consider “CATGATAGAATAGGCAATAATCTATACCTAGCTATCTTTTCGGAGTCACCTAGTGCAG”, for which the binding signal is 14300 fluorescence intensity (a.u.).

Consider “GAACATATGATTAGCGTGCTGTTATATATTCTGTCAGGTTCGGAGTCACCTAGTGCAG”, for which the binding signal was 24600 fluorescence intensity (a.u.).

For the sequence “AATCCTTTGTCATTTACTTTAATTTACTGGTACAGTTCCTCGGAGTCACCTAGTGCAG”, the binding signal was 5650 fluorescence intensity (a.u.).

Turning to “ATGCTAATTTATGCGTGTATGAATAGTAATATAACTAGCACGGAGTCACCTAGTGCAG”, the binding signal is 15000 fluorescence intensity (a.u.).

With “GATAGATAATAGATAGATAAATGGACACATTTCAGGAAAACGGAGTCACCTAGTGCAG”, the binding signal is 20400 fluorescence intensity (a.u.).

Turning to “TATATTATTTGTCAATCTTATTGTCAACTTATTAATCATCCGGAGTCACCTAGTGCAG”, the binding signal is 7160 fluorescence intensity (a.u.).

Consider “GAAAAGATGATTAGATGAATACAAATAGTATACGATAGCACGGAGTCACCTAGTGCAG”, for which the binding signal is 24200 fluorescence intensity (a.u.).

“AACATTTCATATATACACTAATTGGGCCCACACCGAAACCCGGAGTCACCTAGTGCAG”: the binding signal is 5810 fluorescence intensity (a.u.).

Turning to “TTCATTAATTGATTATTACTAGTAGGGATGGTTGGTTCAACGGAGTCACCTAGTGCAG”, the binding signal is 30700 fluorescence intensity (a.u.).

Regarding “AATTTGATTGTATAAACTGACGATTTTAGTTAATTACTATCGGAGTCACCTAGTGCAG”, the binding signal is 48700 fluorescence intensity (a.u.).

As to “CATGCCAATTGATAGTAGAAGCAGTATTAGCTAGCTCTGGCGGAGTCACCTAGTGCAG”, the binding signal was 4660 fluorescence intensity (a.u.).

Turning to “TTACTAAATTAGTAGATAACATTGTGTGCATATACTCCTACGGAGTCACCTAGTGCAG”, the binding signal was 17500 fluorescence intensity (a.u.).

As for “ATGATGACAAACTTTATATCAAAATTGTAGCCCTCGACGCCGGAGTCACCTAGTGCAG”, the binding signal was 8150 fluorescence intensity (a.u.).

On to “ATTTTATAAATTGAATATTTTACCTTCAATATCCATTGAGCGGAGTCACCTAGTGCAG”, for which the binding signal was 26100 fluorescence intensity (a.u.).

With “GAAAATTGAAGTGGTGTTATAAAATTTGGGAACCGGATGCCGGAGTCACCTAGTGCAG”, the binding signal was 18100 fluorescence intensity (a.u.).

Take “GAAATAATCACCAATTGATCACCGTGTATGATTGATCGATCGGAGTCACCTAGTGCAG”: the binding signal is 40500 fluorescence intensity (a.u.).

As for “ACATTAGTTTATATTTAATTGAACTAATTTCTTGTCATAGCGGAGTCACCTAGTGCAG”, the binding signal was 12800 fluorescence intensity (a.u.).

“CGTGATGAACAGTATATGAAATTTTCCACACTTTGGCCTGCGGAGTCACCTAGTGCAG”: the binding signal is 11000 fluorescence intensity (a.u.).

Consider “AATTTTAATTTATAATTTAGGTATCTCTCGAACTAATTTTCGGAGTCACCTAGTGCAG”, for which the binding signal is 13100 fluorescence intensity (a.u.).

On to “CGAATTATGTCTATTAACTTAACATTGTGTGTTGGACCGGCGGAGTCACCTAGTGCAG”, for which the binding signal was 11500 fluorescence intensity (a.u.).

For the sequence “AAATAAATTAATATGTGATATAACACTTTACAATCATATACGGAGTCACCTAGTGCAG”, the binding signal is 12800 fluorescence intensity (a.u.).

Take “TCTGATTGTAGTTTTATAGGGTCTACTTTTCAGTCTTAGACGGAGTCACCTAGTGCAG”: the binding signal is 33100 fluorescence intensity (a.u.).

On to “TTATAGTAACATAATAATTCAATCAGAAAGAACAAGTGGCCGGAGTCACCTAGTGCAG”, for which the binding signal was 4910 fluorescence intensity (a.u.).

On to “TAATTTACGTAATTATAATTTATTTTGTTATGAGTTATTTCGGAGTCACCTAGTGCAG”, for which the binding signal was 16700 fluorescence intensity (a.u.).

In the case of “CAACCGTAATTGCTAGGTACCACCCTGAACACATGATAAGCGGAGTCACCTAGTGCAG”, the binding signal is 17200 fluorescence intensity (a.u.).

On to “CCCATAAATGATGATTGACATGTGGGGCCCCACCACTCTCCGGAGTCACCTAGTGCAG”, for which the binding signal is 20100 fluorescence intensity (a.u.).

As to “TCATCATCAATCATTTAAAGCCGTAAGGTTACGAATTTTCCGGAGTCACCTAGTGCAG”, the binding signal is 11000 fluorescence intensity (a.u.).

“TAACATTGATTGTTATGTCACTTGTCTGTGGATCAACTCTCGGAGTCACCTAGTGCAG”: the binding signal was 26800 fluorescence intensity (a.u.).

As for “AGAGTACTAATTGTTCTATCAATCACTTTTCATTCAAATTCGGAGTCACCTAGTGCAG”, the binding signal is 14700 fluorescence intensity (a.u.).

Turning to “CACTCATTGACAATTATGGTACTACTAGTATTCTGCAGCACGGAGTCACCTAGTGCAG”, the binding signal was 19100 fluorescence intensity (a.u.).

For “CCGTGATTAGAAGTAGTACTAACGTGACGTATATATATCCCGGAGTCACCTAGTGCAG”, the binding signal is 36900 fluorescence intensity (a.u.).

For the sequence “CATAATTATTGGGCATTGTCGGGTACACGAAATGTCTCGACGGAGTCACCTAGTGCAG”, the binding signal was 24100 fluorescence intensity (a.u.).

Take “CCACTAATTACACTCCTTCCGGCTCACTTTATAAAGCCACCGGAGTCACCTAGTGCAG”: the binding signal was 30600 fluorescence intensity (a.u.).

“CCAGCAATCAGATATCCTGAGATAGACAGAGACAGCACAGCGGAGTCACCTAGTGCAG”: the binding signal was 14200 fluorescence intensity (a.u.).

For the sequence “AGAAATTGATTATGGATGAGTGCCCTTCTGCCTATTATGTCGGAGTCACCTAGTGCAG”, the binding signal was 55900 fluorescence intensity (a.u.).

On to “GATAAATTTATTGAGATTTAGTGTTATAAATTTTGCTAATCGGAGTCACCTAGTGCAG”, for which the binding signal is 17400 fluorescence intensity (a.u.).

Consider “CTCTTCATTGATTAGTCCTATCCAGTCAGGAACAAAGCTCCGGAGTCACCTAGTGCAG”, for which the binding signal was 29900 fluorescence intensity (a.u.).

As to “ATATACTGGCAGTTTTAATTACTACTCATAGCCAGTACTGCGGAGTCACCTAGTGCAG”, the binding signal is 3680 fluorescence intensity (a.u.).

Regarding “TACAATTCCCAATTTAAAATTAACATTAAAGTATTGCACACGGAGTCACCTAGTGCAG”, the binding signal was 6230 fluorescence intensity (a.u.).

With “TGAAACGAATAATAAATGAAGTCAAGAGAACCAATATGGCCGGAGTCACCTAGTGCAG”, the binding signal is 3750 fluorescence intensity (a.u.).

For the sequence “ATAATCTGTAATTTGTTCTTTTAAGTTCTATTTTCTTTTCCGGAGTCACCTAGTGCAG”, the binding signal was 4660 fluorescence intensity (a.u.).

“CTATAAATTAAGAAGTACTAACATATAACACACAAACTCTCGGAGTCACCTAGTGCAG”: the binding signal was 8050 fluorescence intensity (a.u.).

Regarding “GCTACTAATCTGTTTGGATGATACAGATATTATCAATTGGCGGAGTCACCTAGTGCAG”, the binding signal was 4510 fluorescence intensity (a.u.).

Regarding “AAAACACATCAATTGCAATTGCCTTTTACATGCCACTTTGCGGAGTCACCTAGTGCAG”, the binding signal was 3270 fluorescence intensity (a.u.).

In the case of “CCATTCAGTCTTGTGCTTGATTTGACATGGATCGGATGCTCGGAGTCACCTAGTGCAG”, the binding signal is 7740 fluorescence intensity (a.u.).

Turning to “AATCAAATTGACACGAGCAAGAAAACCGCACAAGTTAGTACGGAGTCACCTAGTGCAG”, the binding signal is 19100 fluorescence intensity (a.u.).

“TGAGATTAACAAATAAGTCACTACGTTGCTTACCACTGAACGGAGTCACCTAGTGCAG”: the binding signal was 6940 fluorescence intensity (a.u.).

Take “GGTCTAATTGATTGTTTGTCGTCAGAAAAGAAAATCTTATCGGAGTCACCTAGTGCAG”: the binding signal is 28000 fluorescence intensity (a.u.).

“CGTATGATTAGCTGAAATAACCAACGTTTCAAAAGTAGTACGGAGTCACCTAGTGCAG”: the binding signal is 15600 fluorescence intensity (a.u.).

On to “TTTGATTTTAGATAATAACAGAGAAAACATTCCTTGTGGTCGGAGTCACCTAGTGCAG”, for which the binding signal is 28800 fluorescence intensity (a.u.).

Consider “CACTTTGATTATGATGAGATCTTTATTGTCTGTTACCTGGCGGAGTCACCTAGTGCAG”, for which the binding signal is 41100 fluorescence intensity (a.u.).

The record behind these values is PMC7819943, “Rice protein-binding microarrays: a tool to detect cis-acting elements near promoter regions in rice”.
